# According to PubChem BioAssay AID445 (National Center for Advancing Translational Sciences (NCATS), 2006):
# The whole screen tested about 110,000 compounds, of which about 40 (0.04%) were called active. The inconclusive results got no clear call from the source; some entries with a clear call stand among them for comparison. Calls follow the shape of the dose curve; as a rule, active = well fitted curve in the direction sought with a large enough effect in the signal ratio (not every such curve was filed as active); inconclusive = small, poorly fitted or top-dose-only effect, or a change in a side signal; inactive = flat fitted curve, though single readings scatter; the % refers to the signal ratio. Where the call is inconclusive, the potency comes from a doubtful curve fit.
# Assay: IkB Signaling;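 as to IkBa stabilization activation: 0% = basal untreated cells and 100% = reference inhibitor full response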
# Details: ABC-DLBCL IkBa-CBG/CBR dual luciferase ratio (green luciferase fused to IkBa over red control in OCI-Ly3 lymphoma cells), 4 h, scaled: untreated 0%
# Text: NIH Molecular Libraries Screening Centers Network [MLSCN]
# NIH Chemical Genomics Center [NCGC]
# Nuclear factor kappa-B (NF-kappa-B) plays an important role in normal B cell development and survival. Diffuse large B cell lymphoma (DLBCL) is the most commonly observed type of non-Hodgkin's lymphoma. Gene expression analysis has identified an activated B cell-like subtype of DLBCL (ABC-DLBCL) which expresses known NF-kappa-B target genes. […] However, targets upstream of IKK have been largely unexplored and so nodes upstream of IKK in the NF-kappa-B pathway remain untested due to the lack of chemical probes.
# A cell-sensor assay for I-kappa-B-alpha stabilization was developed with NIH investigator Dr. R. Eric Davis in Dr. Louis M. Staudt's laboratory. The assay uses green (CBG68) and red (CBR) emitting beetle luciferases [Chroma-Glo(TM) developed by Promega Corp.] where the green luciferase is fused to I-kappa-B-alpha and the red luciferase is present in its native state. Both luciferase genes are stably present in the OCI-Ly3 human ABC DLBCL cell line, but their expression is under the control of tetracycline-inducible promoters. Following the addition of doxycycline to induce expression of the luciferases, the green luminescence in control cultures rises only slowly because the CBG fusion partner I-kappa-B-alpha is targeted by IKK activity for rapid degradation. In contrast, green luminescence rises rapidly in the presence of proteasome inhibitors or IKK inhibitors. The rise in red luminescence of CBR is not affected by proteasome or IKK inhibitors, and serves as normalization for cell number and nonspecific effects. Compounds were screened as a concentration-titration series that ranged from 57 uM to 0.7 nM.
# NCGC Assay Protocol Summary:
# Cells were seeded in 1536-well plates at 5000 cells/3ul in IMDM medium containing 0.5% FBS, w/o phenol red, L-glutamine, 25 mM HEPES, 3 mg/ml sodium bicarbonate. After centrifugation for 1 min. at 1000 rpm, 23 nl of compounds or DMSO were delivered to each well using a pin tool. Then 1ul 80ng/ml doxycycline was dispensed into white solid 1536-well plates and the plates were incubated at 37C/5% C02 in a cell incubator for 4 hrs. Then 4 ul Chroma-Glo luminescent substrate mix (Promega) was added to each well. The plate was incubated at R.T. for 10-15 min. The plates were measured on a ViewLux plate reader for green luminescence (540/20 nm filter) and red luminescence (618/8 nm filter). The green and red luminescent signals were corrected for red and green luminescence filter overlap using previously determined filter calibration constants (determined using the procedure outlined in the Promega Technical Manual). The %Activity was determined from the ratio of corrected green/red luminescent values. Green luminescent and ratio %Activity was determined by normalizing to the difference in signal between basal cells (0% Activity) and cells incubated with 10 uM of the proteasome inhibitor MG-132 (100% Activity). Red luminescent %Activity was normalized to the difference between red luminesence in basal cells (0%Activity) and zero luminescence (-100% Activity).
# Concentration-response curves were fitted to the signals arising from the green luminescence (I-kappa-B-alpha-luciferase fusion; IkB-luc) and the red luminescence (unfused luciferase; luc) as well as the calculated ratio. The concentration-effect curves were then classified based on curve quality (r2), response magnitude and degree of measured activity. Compounds were then categorized based on their concentration-response curves for all three datasets (Ikb-luc, luc and ratio).
# Keywords: IKK, I-kappa-B, IkB, IkBa, cytotoxicity, luminescence, MLSMR, MLSCN, NIH Roadmap, qHTS, NCGC
# [1] = IkBa stabilization activation: at 57.1 µM (top of the series), proteasome inhibitor 100% unless noted
# Potency is read from the fitted curve at half-maximal effect.
compound,measurement,setting,value
CCCOc1ccc2[nH]cc(C3=CCNCC3)c2n1,IkBa stabilization activation,[1],inactive
COc1cccc(NC(=O)c2cccn(Cc3ccccc3C)c2=O)c1,IkBa stabilization activation,[1],inconclusive: 13.1% [signal inhibitor]
Cc1ccc(Cn2cccc(C(=O)Nc3ccc4c(c3)OCCO4)c2=O)cc1,IkBa stabilization activation,[1],inconclusive: 5.25% [signal inhibitor]
CCCN1CCc2cccc3c2[C@@H]1Cc1ccc(O)c(O)c1-3,IkBa stabilization activation,[1],inactive
C=CCn1c(O)c(C(C)=Nc2ccc(N(C)C)cc2)c(=O)[nH]c1=O,IkBa stabilization activation,[1],inactive
CC[C@H]1CN2CC[C@@H]1C[C@@H]2[C@H](O)c1ccnc2ccccc12,IkBa stabilization activation,[1],"inactive: 0.861% [at 11.4 µM, scaled: untreated 0%, proteasome inhibitor 100%]"
O=C1CS[C@@H](c2ccccc2Cl)c2cc(Cl)ccc2N1,IkBa stabilization activation,[1],inconclusive: 1.72% [signal inhibitor]
Cc1ccccc1CN1C(=O)C(C)N=C(c2ccccc2)c2ccccc21 (configuration not stated),IkBa stabilization activation,[1],inconclusive: 2.08% [signal inhibitor]
O=C(c1cc(-c2cccnc2)nc2ccc(Cl)cc12)N1CCC2(CC1)OCCO2,IkBa stabilization activation,[1],inactive
Cn1c2ccccc2c2c(C(=O)N3CCC4(CC3)OCCO4)cn(C3CCCC3)c(=O)c21,IkBa stabilization activation,[1],inactive
CCOC(=O)C1SC2(C(F)F)CC1(O)c1c(c(OC)c3occc3c1OC)O2 (configuration not stated),IkBa stabilization activation,[1],inactive
CN1CCN(C(=O)COc2ccc(-c3nc4ccccc4s3)cc2)CC1,IkBa stabilization activation,[1],inactive
CCOC(=O)C(O)(c1ccc(N)c(OC)c1)C(F)(F)F (configuration not stated),Potency,[1],"inconclusive: 12.6 µM [signal inhibitor, partial curve]"
CCCN1CCO[C@@H]2c3cc(O)ccc3OC[C@@H]21,IkBa stabilization activation,[1],inactive
Cc1c([C@@H](C)[C@H]2NC[C@H](C)C[C@@H]2O)ccc2c1C[C@@H]1[C@H]2CC=C2C[C@@H](O)CC[C@@]21C,IkBa stabilization activation,[1],"inactive: 3.59% [at 11.4 µM, scaled: untreated 0%, proteasome inhibitor 100%]"
CC(C)[C@@]1(NC(=O)[C@@H]2C=C3c4cccc5[nH]cc(c45)C[C@@H]3N(C)C2)O[C@]2(O)[C@H]3CCCN3C(=O)[C@H](Cc3ccccc3)N2C1=O,IkBa stabilization activation,[1],inactive
Cc1ccc(C(=O)Nc2ccccc2)cc1S(=O)(=O)N1CCCC1,IkBa stabilization activation,[1],inconclusive: -0.807% [signal inhibitor]
CC[C@H](CO)NC(=O)[C@@H]1C=C2c3cccc4[nH]cc(c34)C[C@@H]2N(C)C1,IkBa stabilization activation,[1],inactive
CC(C)(O)/C=C\C(=O)[C@](C)(O)[C@H]1[C@H](O)C[C@]2(C)[C@@H]3CC=C4[C@@H](C=C(O)C(=O)C4(C)C)[C@]3(C)C(=O)C[C@@]12C,Potency,[1],"inconclusive: 3.98 µM [rising, partial curve]"
O=c1ccc2cc(O[C@@H]3O[C@@H](CO)[C@@H](O)[C@@H](O)[C@H]3O)c(O)cc2o1,IkBa stabilization activation,[1],"inactive: 2.41% [at 11.4 µM, scaled: untreated 0%, proteasome inhibitor 100%]"
Cn1cc(C(=O)C(=O)N[C@H]2CN3CCC2CC3)c2ccccc21,Potency,[1],"inconclusive: 31.6 µM [signal inhibitor, partial curve]"
NCCc1ccc(O)cc1,IkBa stabilization activation,[1],inactive
CC[C@H]1[C@@H]2C[C@@H]3[C@@H]4N(C)c5ccccc5[C@@]45C[C@@H]([C@H]2[C@@H]5O)N3[C@@H]1O,IkBa stabilization activation,[1],"inactive: 0.0902% [at 11.4 µM, scaled: untreated 0%, proteasome inhibitor 100%]"
COc1ccc2c(c1)c(C(=O)CN1CCN(C)CC1)c(C)n2Cc1ccccc1,IkBa stabilization activation,[1],inactive
CN1C[C@H](C(=O)N[C@@]2(C)O[C@@]3(O)[C@H]4CCCN4C(=O)[C@@H](Cc4ccccc4)N3C2=O)C=C2c3cccc4[nH]cc(c34)C[C@@H]21,IkBa stabilization activation,[1],"inactive: -0.442% [at 11.4 µM, scaled: untreated 0%, proteasome inhibitor 100%]"
COc1ccc(OCC(=O)N2CCN(Cc3cc(=O)n4nc(-c5ccc(OC)cc5)sc4n3)CC2)cc1,IkBa stabilization activation,[1],inactive
COc1cc(CC2C(=O)N(C)C(=O)N(C)C2=O)ccc1OCc1ccccc1,IkBa stabilization activation,[1],inactive
Cc1ccc(OCC(=O)N2CCN(CCc3ccncc3)CC2)cc1,IkBa stabilization activation,[1],inconclusive: -0.897% [signal inhibitor]
CC(C)(O)[C@H]1[C@H]2OC(=O)[C@@H]1[C@]1(O)C[C@H]3O[C@]34C(=O)O[C@H]2[C@]14C (tested in a mixture with another compound),IkBa stabilization activation,[1],inactive
CCCCn1c(O)c(C=NC2CC3CCC2(C)C3(C)C)c(=O)[nH]c1=O (configuration not stated),IkBa stabilization activation,[1],inactive
COc1ccc(OCC(=O)N2CCN(Cc3ccc(SC)cc3)CC2)cc1,IkBa stabilization activation,[1],inconclusive: 17.8% [signal inhibitor]
COc1ccc2c(c[n+](C)c3c4cc5c(cc4ccc23)OCO5)c1OC,Potency,[1],"inconclusive: 12.6 µM [signal inhibitor, full curve, poor fit]"
c1ccc2c(c1)[I+]c1ccccc1-2,Potency,[1],"inconclusive: 5.01 µM [rising, full curve]"
CN(C)c1ccc(CN2CC=C(c3ccc(F)cc3)CC2)cc1,IkBa stabilization activation,[1],inactive
O=c1oc2ccccc2c(O)c1Cc1c(O)c2ccccc2oc1=O,Potency,[1],"inconclusive: 3.16 µM [signal inhibitor, partial curve]"
O=C1CC(N2CCC(n3c(=O)[nH]c4ccccc43)CC2)C(=O)N1c1ccc(F)cc1 (configuration not stated),IkBa stabilization activation,[1],inactive
Cc1nccc2c1[nH]c1ccccc12,IkBa stabilization activation,[1],inconclusive: 0.767% [signal inhibitor]
same,IkBa stabilization activation,"at 25.6 µM (top of the series), proteasome inhibitor 100%",inactive: -2.25%
same,IkBa stabilization activation,"at 57.1 µM (top of the series), proteasome inhibitor 100%",inactive: -3.38%
C(=NCCN1CCOCC1)=NC1CCCCC1,IkBa stabilization activation,[1],"inactive: -0.98% [at 11.4 µM, scaled: untreated 0%, proteasome inhibitor 100%]"
COc1cccc(-c2nn3c(=O)cc(CN4CCN(C(=O)COc5ccccc5C)CC4)nc3s2)c1,IkBa stabilization activation,[1],inconclusive: 4.07% [signal inhibitor]
C=C(C)[C@H]1[C@H]2OC(=O)[C@@H]1[C@]1(O)C[C@H]3O[C@]34C(=O)O[C@H]2[C@]14C,IkBa stabilization activation,[1],"inactive: 0.248% [at 11.4 µM, scaled: untreated 0%, proteasome inhibitor 100%]"
CC(C)(Cc1c[nH]c2ccc(Cl)cc12)NCCOc1ccccc1OCC1CC1,IkBa stabilization activation,[1],inconclusive: -0.357% [signal inhibitor]
O=C(O)COc1ccccc1,IkBa stabilization activation,[1],inactive
CCCCc1ccc2[nH]cc(CCN)c2c1,IkBa stabilization activation,[1],inactive
FC(F)(F)c1nc2ccc(SSc3ccc4nc(C(F)(F)F)[nH]c4c3)cc2[nH]1,IkBa stabilization activation,[1],"inactive: 0.573% [at 11.4 µM, scaled: untreated 0%, proteasome inhibitor 100%]"
CCCCn1c(=O)c(C(=O)Nc2ccccc2S(N)(=O)=O)c(O)c2ccccc21,Potency,[1],"inconclusive: 3.16 µM [signal inhibitor, full curve]"
CC[C@@]1(O)C(=O)OCc2c1cc1n(c2=O)Cc2cc3c(NC(=O)CN)cccc3nc2-1,IkBa stabilization activation,[1],"inconclusive: 13.1% [signal inhibitor] [at 11.4 µM, scaled: untreated 0%, proteasome inhibitor 100%]"
Cc1c2ccncc2c(C)c2c1[nH]c1ccccc12,IkBa stabilization activation,[1],"inconclusive: -0.778% [signal inhibitor] [at 25.6 µM, scaled: untreated 0%, proteasome inhibitor 100%]"
same,Potency,[1],"inconclusive: 31.6 µM [signal inhibitor, partial curve, poor fit]"
C[C@]12CC[C@H](O)C[C@@H]1CC[C@H]1[C@H]2CC[C@]2(C)[C@H](C(=O)CO)CC[C@@H]12,IkBa stabilization activation,[1],inactive
COc1ccc(C(c2c(O)c3ccccc3oc2=O)c2c(C)n(C)n(-c3ccccc3)c2=O)cc1 (configuration not stated),IkBa stabilization activation,[1],inconclusive: 6.04% [signal inhibitor]
CC(=O)c1cccc(NC(=O)c2cccn(Cc3cccc(C)c3)c2=O)c1,IkBa stabilization activation,[1],inconclusive: 14% [signal inhibitor]
Oc1c(Cl)cc(Cl)cc1CN1CCN(Cc2ccccc2)CC1,IkBa stabilization activation,[1],inconclusive: 2.14% [signal inhibitor]
O=c1[nH]c(=O)n(Cc2ccc(F)cc2)c(O)c1C=NCCN1CCCCC1,IkBa stabilization activation,[1],inactive
COc1ccc(NC(=O)CN2C(=O)C(C)N=C(c3ccccc3)c3ccccc32)cc1OC (configuration not stated),IkBa stabilization activation,[1],inconclusive: 2.96% [signal inhibitor]
CC(C)(C)NC[C@H](O)c1ccccc1Cl,IkBa stabilization activation,[1],inactive
COc1ccc(C[C@H]2NC[C@H](O)[C@@H]2OC(C)=O)cc1,IkBa stabilization activation,[1],inconclusive: 0.257% [signal inhibitor]
CN(C)CCC(C#N)(c1ccccc1)c1ccccc1,IkBa stabilization activation,[1],"inactive: 1.32% [at 11.4 µM, scaled: untreated 0%, proteasome inhibitor 100%]"
Cn1c(C(=O)N2CCC3(CC2)OCCO3)cc2c(=O)n(C)c3ccccc3c21,IkBa stabilization activation,[1],inactive
CC12CCC(=O)C=C1CCC1C2CCC2(C)C(O)CCC12 (configuration not stated),IkBa stabilization activation,[1],inactive
Cc1ccc(OCC(=O)Nc2ccc(Cl)cc2C(=O)c2ccccc2)c(Br)c1,IkBa stabilization activation,[1],inactive
COc1ccc(C(=O)c2c(C)n(CCN3CCOCC3)c3cc(I)ccc23)cc1,IkBa stabilization activation,[1],inconclusive: 1.35% [signal inhibitor]
CC(C)C[C@H]1C(=O)N2CCC[C@@H]2[C@]2(O)O[C@](NC(=O)[C@H]3C=C4c5cccc6[nH]cc(c56)C[C@H]4N(C)C3)(C(C)C)C(=O)N12,IkBa stabilization activation,[1],"inactive: 1.74% [at 11.4 µM, scaled: untreated 0%, proteasome inhibitor 100%]"
CC(C)(Cl)Cl,IkBa stabilization activation,[1],inactive
COC(=O)c1ccccc1-n1c(C)nc2ccccc2c1=O,IkBa stabilization activation,[1],inactive
COC(=O)CN1CN(c2ccccc2)C2(CCN(Cc3ccc4ccccc4c3)CC2)C1=O,IkBa stabilization activation,[1],inconclusive: 1.06% [signal inhibitor]
